Measurements published in patent US20210238256A1 (LEVICEPT, published 2021).

B1: Sequence 1 p75NTR-Fc (SEQ ID No:1) (Fc fusion)
chain: KEACPTGLYTHSGECCKACNLGEGVAQPCGANQTVCEPCLDSVTFSDVVSATEPCKPCTECVGLQSMSAPCVEADDAVCRCAYGYYQDETTGRCEACRVCEAGSGLVFSCQDKQNTVCEECPDGTYSDEANHVDPCLPCTVCEDTERQLRECTRWADAECEEIPGRWITRSTPPEGSDSTAPSTQEPEAPPEQDLIASTVAGVVTTVMGSSQPVVTRGTTDNDIEGRM[human IgG1 Fc not shown]
notes: It describes Fc-mediated dimerisation only in general terms, and uses a fusion protein molecular weight of 102,000 in the Rmax calculation
B2: Sequence 3 p75NTR-Fc (SEQ ID No:3) (Fc fusion)
chain: KEACPTGLYTHSGECCKACNLGEGVAQPCGANQTVCEPCLDSVTFSDVVSATEPCKPCTECVGLQSMSAPCVEADDAVCRCAYGYYQDETTGRCEACRVCEAGSGLVFSCQDKQNTVCEECPDGTYSDEANHVDPCLPCTVCEDTERQLRECTRWADAECEEIPGRWITRSTPPEGSDSTAPSTQEPEAPPEQDLIASTVAGVVTTVMGGGG[human IgG1 Fc with changes not shown]
notes: also called p75-Fc (G4x1)
B3: p75NTR(NBP)-Fc fusion protein Sequence 15 (SEQ ID No:15) (Fc fusion)
chain: KEACPTGLYTHSGECCKACNLGEGVAQPCGANQTVCEPCLDSVTFSDVVSATEPCKPCTECVGLQSMSAPCVEADDAVCRCAYGYYQDETTGRCEACRVCEAGSGLVFSCQDKQNTVCEECPDGTYSDEANHVDPCLPCTVCEDTERQLRECTRWADAECEEIPGRWITRSTPPEGGGG[human IgG1 Fc with changes not shown]

Key:
NGF [1] = target: T1, NGF (UniProt P01138 fragment); assay: SPR (Biacore T200), fusion protein captured on Protein A chip, NGF as analyte, single cycle kinetics, 1:1 model
T1 construct: also called nerve growth factor; neurotrophic growth factor
Protocol: The single cycle kinetics method involved: [0208] injecting 0.625 nM of NGF onto the captured p75-Fc for 120 seconds at 30 μl/min [0209] this process was then repeated with an injection of NGF at 1.25 nM, followed by 2.5, 5 and 10 nM [0210] after the final concentration of NGF had been injected a 600 second dissociation phase was performed by flowing the running buffer (HBS-EP) over the chip.
Sequence 1 (SEQ ID No:1) p75-Fc was then captured onto the chip by performing a 38 second injection at a flow rate of 10 μl/in at a concentration of 10 μg/ml. This achieved the desired level of 430 RU. The single cycle kinetics procedure described above was then repeated.
The fusion protein-NGF binding data was analysed in the following manner using the Biacore T200 evaluation software v1: [0215] Data is recorded for the binding of NGF to the fusion protein on flow cell 2 (Fc=2) and for NGF flowing over the control flow cell 1 (Fc=1; protein A alone). [0216] The data from Fc=1 is then subtracted from Fc=2 to give “2-1” binding data. [0217] The 2-1 binding data for an injection of 0 nM (HBS-EP running buffer alone) is then subtracted from all the 2-1 binding data to control for any drifts in baseline throughout the experiment. [0218]

NT-3 = target: T2, NT-3 (UniProt P20783 139-257); assay: SPR (Biacore affinity)
T2 construct: also called neurotrophin 3
T2 sequence (looked up): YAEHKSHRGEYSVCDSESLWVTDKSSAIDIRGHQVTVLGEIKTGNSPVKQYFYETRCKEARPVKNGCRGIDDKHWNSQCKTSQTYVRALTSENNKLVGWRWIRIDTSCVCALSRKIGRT

BDNF = target: T3, BDNF (UniProt P23560 129-247); assay: SPR (Biacore affinity)
T3 construct: also called brain-derived neurotrophic factor
T3 sequence (looked up): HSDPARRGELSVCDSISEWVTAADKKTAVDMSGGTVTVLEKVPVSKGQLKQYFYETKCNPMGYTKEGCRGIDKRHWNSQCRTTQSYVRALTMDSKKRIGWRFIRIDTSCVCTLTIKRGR

NT-4 = target: T4, NT-4 (UniProt P34130 81-210); assay: SPR (Biacore affinity)
T4 construct: also called neurotrophin 4/5; NT-4/5
T4 sequence (looked up): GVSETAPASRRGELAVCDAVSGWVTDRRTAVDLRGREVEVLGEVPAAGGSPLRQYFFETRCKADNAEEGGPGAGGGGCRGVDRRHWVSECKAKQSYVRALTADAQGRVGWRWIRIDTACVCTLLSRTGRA

NGF [2] = target: T1, NGF; assay: SPR (Biacore), fusion protein captured on Protein A chip, NGF as analyte, single cycle kinetics, 1:1 model
T1 sequence (P01138 122-241 limits assumed): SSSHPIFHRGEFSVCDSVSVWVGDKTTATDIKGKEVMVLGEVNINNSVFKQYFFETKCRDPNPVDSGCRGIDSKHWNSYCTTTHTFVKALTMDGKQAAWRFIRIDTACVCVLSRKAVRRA

NGF [3] = target: T1, NGF; assay: SPR (Biacore affinity)

| Binder | Kd (NGF [1]) | Kd (NT-3) | Kd (BDNF) | Kd (NT-4) | Kd (NGF [2]) | Kd (NGF [3]) |
| --- | --- | --- | --- | --- | --- | --- |
| B1 | 0.4 nM | – | – | – | – | – |
| B2 | – | 0.014 nM | 0.048 nM | 0.181 nM | 0.36 nM | – |
| B3 | – | 0.015 nM | 0.038 nM | 0.164 nM | – | 0.498 nM |
